Experimental data from PubChem BioAssay AID1508642 (National Center for Advancing Translational Sciences (NCATS), 2021).
The whole screen tested about 43,000 compounds, of which about 200 (0.47%) were called active. Another 12% or so got no clear call; they are omitted. Calls come from the whole dose curve; as a rule, active = well fitted cell-killing curve with a large enough effect; inconclusive = small, poorly fitted or top-dose-only effect, or effect the other way; inactive = flat fitted curve, though single readings scatter. The list shows a part of the results.

Assay: Cell viability qHTS assay in S16 Pmp22-F2sN cells; note: nearly all actives have a fitted effect of over 65% in size
Conditions: S16 Pmp22-F2sN Schwann cells (luciferase reporters placed in the Pmp22 gene) viability, CellTiter-Glo, 24 h; series mostly up to 57.5 µM; activity change, negative = cytotoxicity: at the top concentration
Method in brief: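 Rat S16 Schwann reporter line, 24 h treatment with library compounds delivered at 23 nL per well. Cell viability by CellTiter-Glo luminescence.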
% is set by controls: 0 for no effect and ±100 for the full control effect.

SMILES | activity change, negative = cytotoxicity
COc1ccc(N2CCN(C(=O)CCS(=O)(=O)c3cc(Br)cc4c3N(C(=O)C3CC3)CC4)CC2)cc1 | inactive: -1.46%
COc1ccc(NC(=O)CN2C(=O)COc3ccc(S(=O)(=O)N4CCOCC4)cc32)cc1Cl | inactive: 9.08%
COc1ccc(NC(=O)Nc2nnc(N3CCCCCC3)s2)c(OC)c1 | inactive: 4.82%
COc1ccc(C(=O)N2CCC(c3c[nH]c4ccccc34)(c3c[nH]c4ccccc34)CC2)cc1 | inactive: -20.2%
Cc1ccc(C)c(CN2C(=O)c3ccccc3S(=O)c3ccc(C(=O)NCCc4ccc(Cl)cc4)cc32)c1 (stereo not given) | inactive: 8.97%
COc1ccc(NC(=O)c2sc3nc(-c4cc5cccc(OC)c5oc4=O)[nH]c(=O)c3c2C)cc1 | inactive: 6.82%
COc1ccc(NC(=O)c2cc(C3CC3)nc3c2c(C)nn3-c2ccc(C)cc2)cc1OC | inactive: 6.05%
CN(C)c1ccc(CNC(=O)C2CCN(S(=O)(=O)c3cn(C)cn3)CC2)cc1 | inactive: -8.16%
COc1ccccc1CNC(=O)c1oc2c(c1C)-c1nn(Cc3ccc(Cl)cc3)cc1CC2 | inactive: -4.76%
CCOc1ccc(Cn2c(CNS(=O)(=O)c3ccc([N+](=O)[O-])cc3)nc3cccnc32)cc1 | inactive: -1.27%
O=c1c2cc3c(nc2ncn1Cc1ccccc1F)CCCC3 | inactive: -4.32%
COc1ccc(C(=O)NCCSc2c(C)[nH]c3ccccc23)cc1 | inactive: -18%
COCCn1ccc2c(OCC(=O)NCc3ccc(F)cc3)cccc2c1=O | inactive: -0.942%
O=C(NC1CCCC1)c1ccc(CSc2nc3ccncc3n2Cc2ccc(F)cc2)cc1 | inactive: -3.24%
COc1ccc(-n2cc(C(=O)NC(C)c3ccccc3)c3ccccc3c2=O)cc1 (stereo not given) | inactive: 4.95%
Cc1ccc(N2CC(c3nnc(NC(=O)c4ccco4)s3)CC2=O)cc1C (stereo not given) | inactive: -0.24%
CCOc1ccc(NC(=O)c2ccc(-c3cccc(Cl)c3C)o2)cc1 | inactive: 11.8%
Cc1ccc(NC(=O)Cn2cc(S(=O)(=O)N3CCCC3)c(S(=O)(=O)N3CCCC3)c2)cc1C | inactive: -4.92%
CCc1ccc(-c2cc(C)no2)cc1S(=O)(=O)Nc1ccc(Cl)cc1 | inactive: -18.8%
COc1ccc(-c2noc(-c3ccc(NC(C)c4ccccc4)c([N+](=O)[O-])c3)n2)cc1OC (stereo not given) | inactive: 12%

SMILES | activity change, negative = cytotoxicity
COc1cccc(NC(=O)c2cc3c(=O)n(Cc4cccnc4)ccc3nc2C)c1 | inactive: -11.6%
Cc1ccc(-c2nc(S(=O)(=O)c3ccc(C)cc3)c(SCC(=O)NC3CCCCC3)o2)cc1 | inactive: -2.26%
COc1ccccc1CNC(=O)CCC1N=C2c3ccccc3N=C(SCC(=O)NCCc3ccc(OC)c(OC)c3)N2C1=O (stereo not given) | inactive: -16%
COc1cc(NC(=O)C(CCS(C)(=O)=O)N2Cc3ccccc3C2=O)cc(OC)c1OC (stereo not given) | inactive: -5.71%
CCCN1C(=O)c2[nH]nc(-c3ccc(F)cc3)c2C1c1ccccn1 (stereo not given) | inactive: 9.16%
CC1CN(C(=O)N2CCC(C(=O)NC3CCCCCC3)CC2)c2ccccc2O1 (stereo not given) | inactive: 11%
CN(C)c1ccc(NC(=O)CSC2=Nc3ccccc3C3=NC(CC(=O)NCc4ccccc4)C(=O)N23)cc1 (stereo not given) | inactive: 9.63%
CCOC(=O)c1c(C)[nH]c(CCC(=O)NCc2ccccc2C)c1C | inactive: 15.5%
COc1ccc(CCNC(=O)c2nn(C)c3c2CSc2ccccc2-3)cc1OC | inactive: -19.3%
O=C(NCc1ccccc1)C(=O)NCC(c1cccnc1)N1CCN(c2ccccc2)CC1 (stereo not given) | inactive: -10.3%
O=C(c1ccco1)n1nc(-c2ccccc2)nc1NCc1ccccc1Cl | inactive: -1.74%
CC(=O)Nc1ccc(S(=O)(=O)NCCc2csc3nc(-c4cccc(C)c4)nn23)cc1 | inactive: -19.2%
Cc1ccc(N(Cc2cccs2)C(=O)COc2ccccc2[N+](=O)[O-])cc1 | inactive: -24.1%
CCc1ccc(NC(=O)CSc2nc3ccsc3c(=O)n2C(C)CC)cc1 (stereo not given) | inactive: -29.4%
O=C(NCc1ccccc1Cl)C1CCC(CNS(=O)(=O)c2ccc(Br)s2)CC1 (stereo not given) | inactive: -0.0024%
COc1ccccc1-n1c(SCC(=O)Nc2ccc(C)cc2)nc(O)cc1=O | inactive: 13.8%
Cc1ccc(-c2nn3c(-c4ccc(C)cc4)nnc3c3ccccc23)cc1 | inactive: 7.42%
Cc1ccc(NC(=O)c2ccc(Br)cc2)c(C(=O)c2ccccc2)c1 | inactive: 14.4%
Cc1nc2nc(SCC(=O)NCc3ccccc3)nn2c(C)c1Cc1ccccc1 | inactive: 0.346%
CC(C)CC(=O)Nc1ccc(Cl)c(-c2nc3ccccc3[nH]2)c1 | inactive: -6.43%

SMILES | activity change, negative = cytotoxicity
CCc1cccc(NC(=O)CN2C=NS(=O)(=O)c3ccccc32)c1 | inactive: -8.09%
CCOc1nc(NC(=O)NS(=O)(=O)Oc2ccccc2Cl)nc(-c2ccccc2)n1 | inactive: -0.694%
Cc1ccc(NC(=O)CCc2c(C)nc3nc(C)nn3c2C)c(Cl)c1 | inactive: 13.1%
COc1cc2nc(NCC(C)c3ccccc3)n3nc(-c4ccccc4)nc3c2cc1OC (stereo not given) | inactive: -3.23%
CCOC(=O)c1ccccc1NC(=O)N(Cc1ccco1)C1CCN(C(C)=O)CC1 | inactive: -14.4%
COc1ccccc1C(=O)Nc1ccc(C(=O)OCc2cc(=O)n3ccsc3n2)cc1 | inactive: -2.55%
Cc1ccc(N2CC(NC(=O)CCc3ccccc3)CC2=O)cc1 (stereo not given) | inactive: 5.04%
COc1ccccc1C(=O)NC(=O)Nc1ccc(-n2nc(C(F)(F)F)cc2C(F)(F)F)cc1 | inactive: 4.1%
CC1=C(C(=O)NCc2ccc(Cl)cc2)C2(CCCCCC2)OC1=O | inactive: -12.6%
COc1ccc(-c2ccc3c(N)c(C(=O)Nc4cccc(C)c4)sc3n2)cc1 | inactive: -1.52%
COc1cccc(CSc2nc3n(n2)C(c2cccnc2)C(C(=O)Nc2ccccc2C)=C(C)N3)c1 (stereo not given) | inactive: 14.9%
CCOC(=O)CCn1nc(C)c2c(C)n(-c3ccccc3)nc2c1=O | inactive: 1.71%
Cc1cccc(N2CCN(C(=O)Cn3c(=O)c4cccn4c4ccc(F)cc43)CC2)c1C | inactive: 0.55%
Cc1nc2cc(C(=O)O)ccc2n1-c1ccc(C(C)C)cc1 | inactive: -18.7%
CCOC(=O)c1sc(NC(=O)c2cc3nc(-c4ccc(Br)cc4)cc(C(F)(F)F)n3n2)c(C(=O)OCC)c1C | inactive: -6.12%
COc1ccc2[nH]cc(CCN=C(NC(=O)c3cccc(Cl)c3)Nc3nc(C)cc(C)n3)c2c1 | inactive: -4.72%
CCOc1ccc(-c2nnc(SCC(=O)NCc3ccc(Cl)cc3)o2)cc1 | inactive: 6.95%
O=C(CN1C(=O)C2(SCC(=O)N2c2ccccc2)c2ccccc21)Nc1ccccc1C(F)(F)F (stereo not given) | inactive: -3.01%
CC(=O)c1nn(-c2ccc(OC(F)(F)F)cc2)nc1Nc1ccc(Cl)cc1 | inactive: 4.36%
CCOc1ccc(NC(=O)Cn2cc(S(=O)(=O)c3ccc(C)cc3)c(=O)c3cc(F)ccc32)cc1 | inactive: 12.6%
